According to a collection of fitness landscapes (doi:10.1016/j.celrep.2020.107928):
In all, about 81,000 sequences were measured (“one-hybrid fitness for binding NBS DNA”: median about -0.1, highest 2% from about 0.36 on). The list shows a part of the results.

B1: Caulobacter ParB omega fusion; a variant is named by its letters at X, in order, B8GW30 (parent)
chain: MESVVVGEPGMSEGRRGLGRGLSALLGEVDAAPAQAPGEQLGGSREAPIEILQRNPDQPRRTFREEDLEDLSNSIREKGVLQPILVRPSPDTAGEYQIVAGERAWRAAQRAGLKTVPIMVRELDDLAVLEIGIIENVQRADLNVLEEALSYKVLMEKFERTQENIAQTIGKSXSHVANXMRLLXLPDEVQSYLVSGELTAXHARAIAAAADPVALAKQIIEGGLSVRETEALARKAPNLSAGKSKGGRPPRVKDTDTQALESDLSSVLGLDVSIDHRGSTGTLTITYATLEQLDDLCNRLTRGI

Variants of: B1
Experiment: one-hybrid fitness for binding NBS DNA (the Noc-binding site; scaled: cognate 1, non-cognate 0); higher = stronger binding
Settings: with NBS DNA site
Method in brief: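 Fitness here means the log change in variant-to-wild-type read ratio between plasmids sequenced before and after selection. That scale was set so cognate equals 1 and non-cognate equals 0. The selection was a bacterial one-hybrid screen of Caulobacter ParB libraries, four specificity codons randomised, in E. coli USO carrying a HIS3 reporter with the site 19 bp from the promoter, grown 48 hours at 37°C on M9-minus-histidine with 0.1 mM IPTG and 5 mM 3-AT.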

| Variant | one-hybrid fitness for binding NBS DNA |
| --- | --- |
| AYHS | ≤ 0.2 |
| VKLK | ≤ 0.2 |
| ACSL | ≤ 0.2 |
| DCGT | ≤ 0.2 |
| LKYS | ≤ 0.2 |
| YTAE | ≤ 0.2 |
| VCRR | 0.246 |
| VPPK | ≤ 0.2 |
| WPQD | ≤ 0.2 |
| DRSS | ≤ 0.2 |
| HNSS | ≤ 0.2 |
| DCPF | ≤ 0.2 |
| LDSL | ≤ 0.2 |
| TLGC | ≤ 0.2 |
| SYSR | ≤ 0.2 |
| KQRR | 0.416 |
| RQPY | ≤ 0.2 |
| ITAV | ≤ 0.2 |
| CSGA | ≤ 0.2 |
| GHSC | ≤ 0.2 |
| IDTS | ≤ 0.2 |
| IRCN | ≤ 0.2 |
| QTHD | ≤ 0.2 |
| KRKK | 0.26 |

| Variant | one-hybrid fitness for binding NBS DNA |
| --- | --- |
| EWSS | ≤ 0.2 |
| PPPE | ≤ 0.2 |
| AWRR | ≤ 0.2 |
| TILI | ≤ 0.2 |
| RKDI | ≤ 0.2 |
| HGDT | ≤ 0.2 |
| CRNY | ≤ 0.2 |
| WMRG | ≤ 0.2 |
| LYTM | ≤ 0.2 |
| DAID | ≤ 0.2 |
| SKQS | ≤ 0.2 |
| LVMV | ≤ 0.2 |
| TASS | ≤ 0.2 |
| HSPE | ≤ 0.2 |
| QNCS | ≤ 0.2 |
| AITY | ≤ 0.2 |
| EQAA | ≤ 0.2 |
| RAYQ | ≤ 0.2 |
| QYMD | ≤ 0.2 |
| NTFT | ≤ 0.2 |
| KSAV | ≤ 0.2 |
| YKCS | ≤ 0.2 |
| VTQY | ≤ 0.2 |
| CFPR | ≤ 0.2 |

| Variant | one-hybrid fitness for binding NBS DNA |
| --- | --- |
| WADM | ≤ 0.2 |
| FLRS | ≤ 0.2 |
| TYVL | ≤ 0.2 |
| EHLG | ≤ 0.2 |
| LRAE | ≤ 0.2 |
| KYRP | ≤ 0.2 |
| RMII | ≤ 0.2 |
| HPAE | ≤ 0.2 |
| REWS | ≤ 0.2 |
| PPSK | ≤ 0.2 |
| QLDV | ≤ 0.2 |
| RMCL | ≤ 0.2 |
| PVTV | ≤ 0.2 |
| STHK | ≤ 0.2 |
| QVSY | ≤ 0.2 |
| PNPN | ≤ 0.2 |
| RTGQ | ≤ 0.2 |
| SICV | ≤ 0.2 |
| QKKC | 0.385 |
| ASKV | ≤ 0.2 |
| LWWR | ≤ 0.2 |
| FVNS | ≤ 0.2 |
| DVRI | ≤ 0.2 |
| HIDW | ≤ 0.2 |

| Variant | one-hybrid fitness for binding NBS DNA |
| --- | --- |
| FTPR | ≤ 0.2 |
| GWAK | 0.264 |
| LLQG | ≤ 0.2 |
| DPYG | ≤ 0.2 |
| RQKN | 0.214 |
| SMHT | ≤ 0.2 |
| PLSG | ≤ 0.2 |
| RYAQ | ≤ 0.2 |
| PRNH | ≤ 0.2 |
| AGPL | ≤ 0.2 |
| CRRA | ≤ 0.2 |
| MQHL | ≤ 0.2 |
| GAHP | ≤ 0.2 |
| FYRT | ≤ 0.2 |
| MPKF | ≤ 0.2 |
| PSYW | ≤ 0.2 |
| KQDC | ≤ 0.2 |
| FRLS | ≤ 0.2 |
| VSIP | ≤ 0.2 |
| PGNY | ≤ 0.2 |
| WCPL | ≤ 0.2 |
| SDYS | ≤ 0.2 |
| VCNC | ≤ 0.2 |
| YRPM | ≤ 0.2 |

| Variant | one-hybrid fitness for binding NBS DNA |
| --- | --- |
| VAKY | ≤ 0.2 |
| LSNR | ≤ 0.2 |
| LVHY | ≤ 0.2 |
| MSGM | ≤ 0.2 |
| CSAW | ≤ 0.2 |
| CDNY | ≤ 0.2 |
| WCLR | ≤ 0.2 |
| TEQS | ≤ 0.2 |
| TMST | ≤ 0.2 |
| HMAI | ≤ 0.2 |
| CQQS | ≤ 0.2 |
| RAWT | 0.236 |
| ICWR | ≤ 0.2 |
| GRKF | ≤ 0.2 |
| QWPT | ≤ 0.2 |
| GEGT | ≤ 0.2 |
| LGIG | ≤ 0.2 |
| LMGS | ≤ 0.2 |
| CRER | ≤ 0.2 |
| MVDQ | ≤ 0.2 |
| RGSV | ≤ 0.2 |
| QTFY | ≤ 0.2 |
| HSYM | ≤ 0.2 |
| FFLW | ≤ 0.2 |

| Variant | one-hybrid fitness for binding NBS DNA |
| --- | --- |
| RMLC | ≤ 0.2 |
| NHMW | ≤ 0.2 |
| VCTA | ≤ 0.2 |
| FCFG | ≤ 0.2 |
| GGEG | ≤ 0.2 |
| ECGC | ≤ 0.2 |
| PQAD | ≤ 0.2 |
| QRME | ≤ 0.2 |
| LDAV | ≤ 0.2 |
| CPHC | ≤ 0.2 |
| INND | ≤ 0.2 |
| LKPC | ≤ 0.2 |
| PYWE | ≤ 0.2 |
| TGFL | ≤ 0.2 |
| HWMT | ≤ 0.2 |
| MMMK | ≤ 0.2 |
| KTLN | ≤ 0.2 |
| RDIN | ≤ 0.2 |
| QAYA | 0.249 |
| VNTL | ≤ 0.2 |
| ATDE | ≤ 0.2 |
| DNWT | ≤ 0.2 |
| MCMC | ≤ 0.2 |
| PNWY | ≤ 0.2 |

| Variant | one-hybrid fitness for binding NBS DNA |
| --- | --- |
| CRST | 0.202 |
| HNVV | ≤ 0.2 |
| YESM | ≤ 0.2 |
| QESW | ≤ 0.2 |
| TGRS | ≤ 0.2 |
| QRFK | 0.295 |
| RCTS | 0.516 |
| LFQR | ≤ 0.2 |
| NSHY | ≤ 0.2 |
| YMAS | ≤ 0.2 |
| QLKY | 0.46 |
| SMIE | ≤ 0.2 |
| KKNG | ≤ 0.2 |
| FPPL | ≤ 0.2 |
| YLRL | ≤ 0.2 |
| AVVV | ≤ 0.2 |
| SYKM | ≤ 0.2 |
| TYRV | ≤ 0.2 |
| VCVM | ≤ 0.2 |
| YGAR | ≤ 0.2 |
| RGTC | ≤ 0.2 |
| IKLT | ≤ 0.2 |
| LSWD | ≤ 0.2 |
| RWHE | ≤ 0.2 |

| Variant | one-hybrid fitness for binding NBS DNA |
| --- | --- |
| YPQS | ≤ 0.2 |
| HVPF | ≤ 0.2 |
| ASGI | ≤ 0.2 |
| MAHC | ≤ 0.2 |
| TTPR | ≤ 0.2 |
| RAPA | ≤ 0.2 |
| ELMV | ≤ 0.2 |
| GPAG | ≤ 0.2 |
| QISR | 0.386 |
| PRPA | ≤ 0.2 |
| DLAK | ≤ 0.2 |
| EECS | ≤ 0.2 |
| MHLS | ≤ 0.2 |
| MLLE | ≤ 0.2 |
| FRKS | ≤ 0.2 |
| PHFT | ≤ 0.2 |
| KTFY | ≤ 0.2 |
| HATT | ≤ 0.2 |
| YWPT | ≤ 0.2 |
| VYAA | ≤ 0.2 |
| RPWV | ≤ 0.2 |
| DYAR | ≤ 0.2 |
| SAAH | ≤ 0.2 |
| CSNE | ≤ 0.2 |

| Variant | one-hybrid fitness for binding NBS DNA |
| --- | --- |
| PKTP | ≤ 0.2 |
| MNTR | ≤ 0.2 |
| TPAK | ≤ 0.2 |
| NKHW | ≤ 0.2 |
| RGAP | ≤ 0.2 |
| TRDH | ≤ 0.2 |
| TIKY | ≤ 0.2 |
| QELR | ≤ 0.2 |
| SSKD | ≤ 0.2 |
| RAVQ | ≤ 0.2 |
| RRAP | ≤ 0.2 |
| QLFC | ≤ 0.2 |
| TVHW | ≤ 0.2 |
| QVVL | ≤ 0.2 |
| ICPF | ≤ 0.2 |
| HDTS | ≤ 0.2 |
| TITG | ≤ 0.2 |
| NNRI | ≤ 0.2 |
| LSLE | ≤ 0.2 |
| WLHP | ≤ 0.2 |
| HSRR | ≤ 0.2 |
| CSRY | ≤ 0.2 |
| PSPR | ≤ 0.2 |
| SHLA | ≤ 0.2 |

| Variant | one-hybrid fitness for binding NBS DNA |
| --- | --- |
| SSSS | ≤ 0.2 |
| LCIG | ≤ 0.2 |
| PVPL | ≤ 0.2 |
| RTQG | ≤ 0.2 |
| WFAK | ≤ 0.2 |
| QQCK | ≤ 0.2 |
| QMHC | ≤ 0.2 |
| NAAT | ≤ 0.2 |
| ISDR | ≤ 0.2 |
| ADTC | ≤ 0.2 |
| RAVV | ≤ 0.2 |
| GERV | ≤ 0.2 |
| PTLC | ≤ 0.2 |
| DKSG | ≤ 0.2 |
| LIKA | ≤ 0.2 |
| STWY | ≤ 0.2 |
| YLNM | ≤ 0.2 |
| AMFR | ≤ 0.2 |
| YVSP | ≤ 0.2 |
| THRR | 0.239 |
| LERN | ≤ 0.2 |
| RKKL | ≤ 0.2 |
| TWNT | ≤ 0.2 |
| MMTC | ≤ 0.2 |

| Variant | one-hybrid fitness for binding NBS DNA |
| --- | --- |
| PTKI | ≤ 0.2 |
| WSCS | ≤ 0.2 |
| CKCS | ≤ 0.2 |
| TWCD | ≤ 0.2 |
| MLKR | ≤ 0.2 |
| KVGN | ≤ 0.2 |
| STVA | ≤ 0.2 |
| EMHC | ≤ 0.2 |
| HPGV | ≤ 0.2 |
| VWMW | ≤ 0.2 |
| ARPV | ≤ 0.2 |
| TYRM | ≤ 0.2 |
| PPCG | ≤ 0.2 |
| VQYR | ≤ 0.2 |
| LDHR | ≤ 0.2 |
| WIQR | ≤ 0.2 |
| ALYY | ≤ 0.2 |
| QSFT | 0.315 |
| PTIC | ≤ 0.2 |
| FYRS | ≤ 0.2 |
| RAPS | ≤ 0.2 |
| PHRP | ≤ 0.2 |
| RPIS | ≤ 0.2 |
| MHQW | ≤ 0.2 |

| Variant | one-hybrid fitness for binding NBS DNA |
| --- | --- |
| KFNE | ≤ 0.2 |
| YCPS | ≤ 0.2 |
| KLIS | ≤ 0.2 |
| GGTC | ≤ 0.2 |
| RQNL | ≤ 0.2 |
| PYYW | ≤ 0.2 |
| HPNG | ≤ 0.2 |
| TMRV | ≤ 0.2 |
| GMRQ | ≤ 0.2 |
| RIYQ | ≤ 0.2 |
| PPFT | ≤ 0.2 |
| DPRG | ≤ 0.2 |
| ERNT | ≤ 0.2 |
| HQPR | ≤ 0.2 |
| MRMR | ≤ 0.2 |
| LHRT | ≤ 0.2 |
| KMQT | ≤ 0.2 |
| PRSD | ≤ 0.2 |
| VVDT | ≤ 0.2 |
| VHRC | ≤ 0.2 |
| ATTH | ≤ 0.2 |
| VRIR | ≤ 0.2 |
| NRRL | ≤ 0.2 |
| DRGL | ≤ 0.2 |

| Variant | one-hybrid fitness for binding NBS DNA |
| --- | --- |
| AHNR | ≤ 0.2 |
| TLTG | ≤ 0.2 |
| VANE | ≤ 0.2 |
| KWPS | ≤ 0.2 |
| ATYS | ≤ 0.2 |
| WARV | ≤ 0.2 |
| RYHV | ≤ 0.2 |
| YWSS | ≤ 0.2 |
| MSRR | ≤ 0.2 |
| FGVT | ≤ 0.2 |
| SNKG | ≤ 0.2 |
| SHCH | ≤ 0.2 |
| PTSK | ≤ 0.2 |
| IDNV | ≤ 0.2 |
| NQVL | ≤ 0.2 |
| RHTQ | ≤ 0.2 |
| NVAL | ≤ 0.2 |
| ATLH | ≤ 0.2 |
